Experimental data: the supplement of paper PMC8728848
Some of the results follow.

What was measured:
Assay in all cases: glycan array binding signal (z-score within array); higher = stronger binding
Conditions in all cases: glycan notation: IUPAC condensed, linker removed
[1] = target: Gal(b1-3)GlcNAc(b1-3)Gal(b1-4)[Fuc(a1-3)]GlcNAc(b1-6)[Gal(b1-3)GlcNAc(b1-3)]Gal(b1-4)Glc
Method in brief: (§1)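 The Consortium for Functional Glycomics database supplied 3228 glycan arrays, of which those lacking an available protein sequence were dropped. The binding signal, a within-array Z-score, was averaged across arrays of the same protein sequence and across linkers. Negative scores can be read as non-binding.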

[2] = target: Gal(b1-3)GlcNAc(b1-3)GalNAc
Method in brief: as §1

[3] = target: Gal(b1-3)GlcNAc(b1-6)Gal(b1-4)GlcNAc
Method in brief: as §1

[4] = target: Gal(b1-3)GlcNAc(b1-6)GalNAc
Method in brief: as §1

[5] = target: Gal(b1-3)GlcNAc(b1-6)[Gal(b1-3)]GalNAc
Method in brief: as §1

Gal(b1-3)GlcNAc6S = target: Gal(b1-3)GlcNAc6S
Method in brief: as §1

[6] = target: Gal(b1-3)[Fuc(a1-4)]GlcNAc
Method in brief: as §1

[7] = target: Gal(b1-3)[Fuc(a1-4)]GlcNAc(b1-2)Man
Method in brief: as §1

[8] = target: Gal(b1-3)[Fuc(a1-4)]GlcNAc(b1-2)Man(a1-3)[Gal(b1-3)[Fuc(a1-4)]GlcNAc(b1-2)Man(a1-6)]Man(b1-4)GlcNAc(b1-4)[Fuc(a1-6)]GlcNAc
Method in brief: as §1

[9] = target: Gal(b1-3)[Fuc(a1-4)]GlcNAc(b1-3)Gal(b1-3)[Fuc(a1-4)]GlcNAc
Method in brief: as §1

[10] = target: Gal(b1-3)[Fuc(a1-4)]GlcNAc(b1-3)Gal(b1-4)GlcNAc
Method in brief: as §1

[11] = target: Gal(b1-3)[Fuc(a1-4)]GlcNAc(b1-3)Gal(b1-4)[Fuc(a1-3)]GlcNAc
Method in brief: as §1

[12] = target: Gal(b1-3)[Fuc(a1-4)]GlcNAc(b1-6)GalNAc
Method in brief: as §1

[13] = target: Gal(b1-3)[GlcNAc(b1-6)]GalNAc
Method in brief: as §1

[14] = target: Gal(b1-3)[Neu5Ac(a2-6)]GalNAc
Method in brief: as §1

[15] = target: Gal(b1-3)[Neu5Ac(a2-6)]GlcNAc(b1-4)Gal(b1-4)Glc
Method in brief: as §1

[16] = target: Gal(b1-3)[Neu5Ac(a2-6)]GlcNAc(b1-6)Gal(b1-4)Glc
Method in brief: as §1

[17] = target: Gal(b1-3)[Neu5Ac(b2-6)]GalNAc
Method in brief: as §1

Gal(b1-4)Gal = target: Gal(b1-4)Gal
Method in brief: as §1

[18] = target: Gal(b1-4)GalNAc(a1-3)[Fuc(a1-2)]Gal(b1-4)GlcNAc
Method in brief: as §1

[19] = target: Gal(b1-4)GalNAc(b1-3)[Fuc(a1-2)]Gal(b1-4)GlcNAc
Method in brief: as §1

Gal(b1-4)Glc = target: Gal(b1-4)Glc
Method in brief: as §1

Gal(b1-4)Glc6S = target: Gal(b1-4)Glc6S
Method in brief: as §1

Gal(b1-4)GlcNAc = target: Gal(b1-4)GlcNAc
Method in brief: as §1

[20] = target: Gal(b1-4)GlcNAc(a1-6)Gal(b1-4)GlcNAc
Method in brief: as §1

Gal(b1-4)GlcNAc(b1-2)Man = target: Gal(b1-4)GlcNAc(b1-2)Man
Method in brief: as §1

[21] = target: Gal(b1-4)GlcNAc(b1-2)Man(a1-3)Man(b1-4)GlcNAc(b1-4)GlcNAc
Method in brief: as §1

[22] = target: Gal(b1-4)GlcNAc(b1-2)Man(a1-3)[Gal(b1-4)GlcNAc(b1-2)Man(a1-6)]Man(b1-4)GlcNAc(b1-4)GlcNAc
Method in brief: as §1

[23] = target: Gal(b1-4)GlcNAc(b1-2)Man(a1-3)[Gal(b1-4)GlcNAc(b1-2)Man(a1-6)]Man(b1-4)GlcNAc(b1-4)[Fuc(a1-6)]GlcNAc
Method in brief: as §1

[24] = target: Gal(b1-4)GlcNAc(b1-2)Man(a1-3)[Gal(b1-4)GlcNAc(b1-2)Man(a1-6)][Gal(b1-4)GlcNAc(b1-4)]Man(b1-4)GlcNAc(b1-4)[Fuc(a1-6)]GlcNAc
Method in brief: as §1

[25] = target: Gal(b1-4)GlcNAc(b1-2)Man(a1-3)[Gal(b1-4)GlcNAc(b1-2)Man(a1-6)][GlcNAc(b1-4)]Man(b1-4)GlcNAc(b1-4)[Fuc(a1-6)]GlcNAc
Method in brief: as §1

[26] = target: Gal(b1-4)GlcNAc(b1-2)Man(a1-3)[GlcNAc(b1-2)Man(a1-6)]Man(b1-4)GlcNAc(b1-4)GlcNAc
Method in brief: as §1

[27] = target: Gal(b1-4)GlcNAc(b1-2)Man(a1-3)[GlcNAc(b1-4)][Gal(b1-4)GlcNAc(b1-2)Man(a1-6)]Man(b1-4)GlcNAc(b1-4)GlcNAc
Method in brief: as §1

[28] = target: Gal(b1-4)GlcNAc(b1-2)Man(a1-3)[Man(a1-6)]Man(b1-4)GlcNAc(b1-4)GlcNAc
Method in brief: as §1

[29] = target: Gal(b1-4)GlcNAc(b1-2)Man(a1-6)Man(b1-4)GlcNAc(b1-4)GlcNAc
Method in brief: as §1

[30] = target: Gal(b1-4)GlcNAc(b1-2)Man(a1-6)[GlcNAc(b1-2)Man(a1-3)]Man(b1-4)GlcNAc(b1-4)GlcNAc
Method in brief: as §1

[31] = target: Gal(b1-4)GlcNAc(b1-2)Man(a1-6)[Man(a1-3)]Man(b1-4)GlcNAc(b1-4)GlcNAc
Method in brief: as §1

[32] = target: Gal(b1-4)GlcNAc(b1-2)[Gal(b1-4)GlcNAc(b1-4)]Man(a1-3)[Gal(b1-4)GlcNAc(b1-2)Man(a1-6)]Man(b1-4)GlcNAc(b1-4)GlcNAc
Method in brief: as §1

[33] = target: Gal(b1-4)GlcNAc(b1-2)[Gal(b1-4)GlcNAc(b1-4)]Man(a1-3)[Gal(b1-4)GlcNAc(b1-2)[Gal(b1-4)GlcNAc(b1-6)]Man(a1-6)]Man(b1-4)GlcNAc(b1-4)GlcNAc
Method in brief: as §1

[34] = target: Gal(b1-4)GlcNAc(b1-2)[Gal(b1-4)GlcNAc(b1-4)]Man(a1-3)[GlcNAc(b1-4)][Gal(b1-4)GlcNAc(b1-2)Man(a1-6)]Man(b1-4)GlcNAc(b1-4)GlcNAc
Method in brief: as §1

[35] = target: Gal(b1-4)GlcNAc(b1-2)[Gal(b1-4)GlcNAc(b1-4)]Man(a1-3)[GlcNAc(b1-4)][Gal(b1-4)GlcNAc(b1-2)[Gal(b1-4)GlcNAc(b1-6)]Man(a1-6)]Man(b1-4)GlcNAc(b1-4)GlcNAc
Method in brief: as §1

[36] = target: Gal(b1-4)GlcNAc(b1-2)[Gal(b1-4)GlcNAc(b1-6)]Man(a1-6)[Gal(b1-4)GlcNAc(b1-2)Man(a1-3)]Man(b1-4)GlcNAc(b1-4)GlcNAc
Method in brief: as §1

[37] = target: Gal(b1-4)GlcNAc(b1-2)[Gal(b1-4)GlcNAc(b1-6)]Man(a1-6)[Gal(b1-4)GlcNAc(b1-2)Man(a1-3)]Man(b1-4)GlcNAc(b1-4)[Fuc(a1-6)]GlcNAc
Method in brief: as §1

[38] = target: Gal(b1-4)GlcNAc(b1-2)[Gal(b1-4)GlcNAc(b1-6)]Man(a1-6)[GlcNAc(b1-4)][Gal(b1-4)GlcNAc(b1-2)Man(a1-3)]Man(b1-4)GlcNAc(b1-4)GlcNAc
Method in brief: as §1

[39] = target: Gal(b1-4)GlcNAc(b1-2)[Gal(b1-4)GlcNAc(b1-6)]Man(a1-6)[GlcNAc(b1-4)][Gal(b1-4)GlcNAc(b1-2)[Gal(b1-4)GlcNAc(b1-4)]Man(a1-3)]Man(b1-4)GlcNAc(b1-4)[Fuc(a1-6)]GlcNAc
Method in brief: as §1

B1: ABA (Agaricus bisporus), Q00022 (protein)
chain: MTYTISIRVYQTTPKGFFRPVERTNWKYANGGTWDEVRGEYVLTMGGSGTSGSLRFVSSDTDESFVATFGVHNYKRWCDIVTNLTNEQTALVINQEYYGVPIRDQARENQLTSYNVANAKGRRFAIEYTVTEGDNLKANLIIG
- glycan array binding signal (z-score) [1]: -0.161
- glycan array binding signal (z-score) [2]: -0.179
- glycan array binding signal (z-score) [3]: -0.3
- glycan array binding signal (z-score) [4]: -0.25
- glycan array binding signal (z-score) [5]: 0.023
- glycan array binding signal (z-score) (Gal(b1-3)GlcNAc6S): -0.257
- glycan array binding signal (z-score) [6]: -0.208
- glycan array binding signal (z-score) [7]: 0.075
- glycan array binding signal (z-score) [8]: 0.431
- glycan array binding signal (z-score) [9]: -0.214
- glycan array binding signal (z-score) [10]: 0.229
- glycan array binding signal (z-score) [11]: -0.226
- glycan array binding signal (z-score) [12]: -0.229
- glycan array binding signal (z-score) [13]: 0.686
- glycan array binding signal (z-score) [14]: -0.104
- glycan array binding signal (z-score) [15]: -0.284
- glycan array binding signal (z-score) [16]: -0.174
- glycan array binding signal (z-score) [17]: -0.241
- glycan array binding signal (z-score) (Gal(b1-4)Gal): -0.183
- glycan array binding signal (z-score) [18]: -0.224
- glycan array binding signal (z-score) [19]: -0.227
- glycan array binding signal (z-score) (Gal(b1-4)Glc): -0.163
- glycan array binding signal (z-score) (Gal(b1-4)Glc6S): -0.203
- glycan array binding signal (z-score) (Gal(b1-4)GlcNAc): -0.244
- glycan array binding signal (z-score) [20]: -0.242
- glycan array binding signal (z-score) (Gal(b1-4)GlcNAc(b1-2)Man): -0.184
- glycan array binding signal (z-score) [21]: -0.264
- glycan array binding signal (z-score) [22]: -0.25
- glycan array binding signal (z-score) [23]: -0.215
- glycan array binding signal (z-score) [24]: -0.258
- glycan array binding signal (z-score) [25]: -0.279
- glycan array binding signal (z-score) [26]: 1.03
- glycan array binding signal (z-score) [27]: -0.224
- glycan array binding signal (z-score) [28]: -0.26
- glycan array binding signal (z-score) [29]: -0.21
- glycan array binding signal (z-score) [30]: 2.81
- glycan array binding signal (z-score) [31]: -0.241
- glycan array binding signal (z-score) [32]: -0.248
- glycan array binding signal (z-score) [33]: -0.269
- glycan array binding signal (z-score) [34]: -0.25
- glycan array binding signal (z-score) [35]: -0.241
- glycan array binding signal (z-score) [36]: -0.037
- glycan array binding signal (z-score) [37]: -0.241
- glycan array binding signal (z-score) [38]: -0.226
- glycan array binding signal (z-score) [39]: -0.207
